The campaign covered roughly 48,000 compounds. About 120 (0.25%) were called active. Inconclusive means that the source gave no clear call. Such entries were picked first, then a sample of the others. Calls come from the whole dose curve; as a rule, active = well fitted activation curve with a large enough effect; inconclusive = small, poorly fitted or top-dose-only effect, or another doubt; inactive = no such curve, though single readings can be large or run the other way. Potencies of inconclusive entries are doubtful fits and often do not repeat.
Test: Primary qHTS for Identification of Small Molecule Activators of Huntingtin-Antisense Promoter Activity; note: nearly all actives have a fitted effect of over 55% in size
Details: HEK293 HTT-AS promoter firefly luciferase reporter, 24 h; activity change, positive = activation: at 57.5 µM (top of the series), percent change from vehicle, -100% = no light unless noted
How it was run: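 HEK293 Fluc reporter, 2,500 cells/well, 24 h pre-culture; cpds up to 57.5 uM final, 24 h 37 degrees C; Dual-Glo, 10 min RT; normalized vehicle = 0%, zero RLU = -100%.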
Potency is the fitted concentration of half-maximal effect; tags give direction and shape of the fitted curve.

| Compound | Potency | activity change, positive = activation |
| --- | --- | --- |
| Cc1ccc(Nc2c(-c3c[nH]c4ccccc34)nc3ccccn23)cc1 | inconclusive: 1.41 µM [activator, partial curve, poor fit] | – |
| CC(C)(C)C(=O)Nc1ccc(-c2nc3ccc(NC(=O)C(C)(C)C)cc3[nH]2)cc1 | inconclusive: 11.2 µM [activator, partial curve] | – |
| CCc1ccc(-n2nnc(-c3nc(-c4cccs4)no3)c2N)cc1 | inconclusive: 1.26 µM [activator, full curve, poor fit] | – |
| Cc1c(-c2nc(-c3ccccc3)no2)nnn1-c1ccc(F)c(Cl)c1 | inconclusive: 10 µM [activator, partial curve, poor fit] | – |
| Cc1ccc(C2=CC(c3ccccc3F)n3c(nc4ccccc43)N2)cc1C (stereo not given) | inconclusive: 3.16 µM [activator, partial curve, poor fit] | – |
| CN(C)c1ccc(-n2c(CCC(=O)O)ccc2-c2ccccc2)cc1 | – | inconclusive: -16.9% [activator] |
| Cc1ccccc1Nc1c(-c2ccc(Cl)s2)nc2cccc(C)n12 | inconclusive: 17.8 µM [activator, partial curve, poor fit] | – |
| CCCOC(=O)CSc1ncnc2sc3c(c12)CCC(C)C3 (stereo not given) | inconclusive: 25.1 µM [activator, partial curve, poor fit] | – |
| CCOC(=O)c1ccc(NC(=O)N2CCOc3ccccc32)cc1 | inconclusive: 10 µM [activator, partial curve] | – |
| CCCSc1nnc2c(n1)OC(c1sccc1C)Nc1ccccc1-2 (stereo not given) | inconclusive: 1.58 µM [activator, full curve, poor fit] | – |
| O=C(NCc1ccccc1)c1ccc2nc(CCc3ccccc3)oc2c1 | inconclusive: 11.2 µM [activator, partial curve] | – |
| COc1cc(OC)cc(-c2nc(-c3cccc(C)c3)no2)c1 | active: 11.2 µM | – |
| CC1(C)CC(=O)c2c(C(F)(F)F)nn(-c3ccc(C(N)=O)c(NC4CCC(OC(=O)CN)CC4)c3)c2C1 (stereo not given) | inactive | – |
| CN(C)Cc1c(C(=O)NCCOc2ccc(C(=O)NO)cc2)oc2ccccc12 | inconclusive: 17.2 µM [activator, partial curve] | – |
| Cc1ccc(-c2cc(NC(=O)COc3ccc(Cl)cc3C)on2)cc1 | inconclusive: 14.1 µM [activator, partial curve, poor fit] | – |
| Cc1cc2c(n1-c1ccc(C(=O)NCc3ccc(OC(C)C)cc3)cc1)CCCC2 | inconclusive: 15.8 µM [activator, single point] | – |
| CC(C)c1cc(-c2nc(-c3ccc(Br)cc3)no2)n[nH]1 | inconclusive: 39.8 µM [activator, single point] | – |
| Cc1cc2c(n1-c1ccc(C(=O)NCCc3ccccc3)cc1)CCC(C)C2 (stereo not given) | inconclusive: 15.8 µM [activator, partial curve, poor fit] | – |
| Cc1c(OCC(F)(F)F)ccnc1CS(=O)c1nc2ccccc2[nH]1 (stereo not given) | inconclusive: 2.82 µM [activator, full curve, poor fit] | – |
| CCCCCn1c(=O)[nH]c2cc(C(=O)N3CCN(c4cccc(OC)c4)CC3)ccc2c1=O | inactive | – |
| Cc1ccc(CNc2ncccc2-c2nc(-c3ccc(Cl)cc3)no2)cc1 | inconclusive: 12.6 µM [activator, partial curve] | – |
| Cc1ccc(-c2nc(S(=O)(=O)c3ccccc3)c(SCC(=O)NC3CCCCC3)o2)cc1 | inconclusive: 5.62 µM [activator, single point] | – |

| Compound | Potency | activity change, positive = activation |
| --- | --- | --- |
| CCCOc1ccc(C(=O)Nc2ccc(-c3cc4ccccc4oc3=O)c(C)c2)cc1 | inactive | – |
| Cc1ccc(CCNC(=O)CCn2nc(-c3ccc(Cl)cc3)ccc2=O)cc1 | inactive | – |
| CCc1ccc(CN(C(=O)Nc2cccc(Cl)c2)c2ccccn2)cc1 | inconclusive: 1.12 µM [activator, full curve] | – |
| Cc1ccccc1C(=O)Nc1nnc2n1CCS2 | inconclusive: 25.1 µM [activator, partial curve, poor fit] | – |
| Fc1ccccc1Cc1cn2cc(-c3ccc(Cl)cc3)nc2s1 | inconclusive: 0.178 µM [activator, full curve, poor fit] | – |
| CC(C)c1ccc(Cn2c(COc3ccccc3)nc3ccccc32)cc1 | inconclusive: 39.8 µM [activator, partial curve, poor fit] | – |
| CCOc1ccc(CN2CCc3nc(N4CCN(c5ccccc5OC)CC4)ncc3C2)cc1OC | inactive | – |
| COc1cccc(CNC(=O)CCS(=O)(=O)c2ccc3c(c2)oc(=O)n3C)c1 | inconclusive: 5.01 µM [activator, single point] | – |
| COc1ccccc1NC(=O)CSc1nnc(N)s1 | inactive | – |
| O=C(Nc1ccc(C(=O)N2CCN(c3cccc(Cl)c3)CC2)cc1)c1nsc2ccccc12 | inconclusive: 0.178 µM [activator, full curve, poor fit] | – |
| CC(=O)N[C@@H](CO)C(=O)N[C@@H](CC(=O)O)C(=O)N[C@@H](CCCCN)C(=O)N1CCC[C@H]1C(=O)O | inactive | – |
| Cc1ccc2ncc(C(=O)Nc3ccc(F)cc3F)c(=O)n2c1 | inconclusive: 31.6 µM [activator, partial curve, poor fit] | – |
| Cc1ccc(CSc2cn(CC(=O)N3CCCC3)c3ccccc23)cc1 | inconclusive: 12.6 µM [activator, partial curve, poor fit] | – |
| O=C(Nc1cc(-c2nc3ccccc3o2)ccc1Cl)c1ccc(N2CCCCC2)c([N+](=O)[O-])c1 | inconclusive: 28.2 µM [activator, single point] | – |
| COc1cccc(C2=C(C(C)=O)Sc3nncn3N2C(C)=O)c1 | inconclusive: 22.4 µM [activator, partial curve] | – |
| Cc1ccc(NC(=O)Nc2nnc(N3CCCC3)s2)cc1 | inconclusive: 28.2 µM [activator, partial curve, poor fit] | – |
| CN(C)c1ccc(C(=O)NCCCCCCC(=O)NO)cc1 | inconclusive: 5.44 µM [activator, partial curve] | – |
| COc1ccc(NC(=O)c2ccc3nc(CCc4ccccc4)oc3c2)cc1 | inconclusive: 1.26 µM [activator, full curve, poor fit] | – |
| COc1ccc2cc(CCC(C)=O)ccc2c1 | inconclusive: 1.26 µM [activator, full curve, poor fit] | – |
| O=C(c1cccc(Cl)c1)n1nc(-c2ccco2)nc1NCc1cccs1 | inconclusive: 12.6 µM [activator, partial curve] | – |
| COc1cc(CN(C(=O)c2cc3ccccc3oc2=O)C2CCS(=O)(=O)C2)cc(OC)c1OC (stereo not given) | inconclusive: 12.6 µM [activator, partial curve] | – |
| CCc1ccc(-n2nnc(-c3nc(-c4ccccc4)no3)c2C)cc1 | inconclusive: 1.26 µM [activator, full curve, poor fit] | – |

| Compound | Potency | activity change, positive = activation |
| --- | --- | --- |
| O=C1NC(=O)C(=Cc2ccc3nccnc3c2)S1 | inconclusive: 3.35 µM [activator, full curve, poor fit] | – |
| CCc1ccccc1NC(=O)Nc1nnc(N2CCCC2)s1 | inactive | – |
| CCOc1ccccc1NC(=O)c1c(NC(=O)COc2ccccc2)sc2c1CCCC2 | inactive | – |
| Cc1cc(NC(=O)n2ncc3c(C)cccc32)ccc1Br | inconclusive: 15.8 µM [activator, partial curve, poor fit] | – |
| COc1ccc(CC(=O)Nc2nc3c(s2)CC(C)CC3)cc1 (stereo not given) | inconclusive: 22.4 µM [activator, partial curve, poor fit] | – |
| Fc1ccc(N2CCN(c3nc4ccccc4c4nc(-c5ccccc5)nn34)CC2)cc1 | inconclusive: 2 µM [activator, single point] | – |
| COc1ccc(OCC(=O)Nc2ccc(-c3nc4cc(C)cc(C)c4o3)cc2)cc1 | inconclusive: 1 µM [activator, full curve, poor fit] | – |
| OCCCc1ccccc1 | inactive | – |
| Cc1ccc(-n2c(SCc3ccccc3)nc3c([nH]c4ccccc43)c2=O)cc1 | – | inconclusive: 27.6% [activator] |
| Cc1nnc(NC(=O)c2ccccc2)s1 | inconclusive: 12.6 µM [activator, partial curve, poor fit] | – |
| CCC(=O)N1CCc2cc(CNC(=O)c3ccc(F)cc3)ccc21 | inconclusive: 14.1 µM [activator, single point] | – |
| N#CC1=C2SCN(C3CCCCC3)CN2C(=O)CC1c1ccc(Cl)cc1 (stereo not given) | inactive | – |
| CCc1ccc(C2=CC(c3cccc(OC)c3OC)n3c(nc4ccccc43)N2)cc1 (stereo not given) | inconclusive: 0.251 µM [activator, full curve, poor fit] | – |
| Cc1nnc(SCC(=O)NCc2cccc(F)c2)c2nn(-c3ccccc3)c(C)c12 | inactive | – |
| CC(=O)N1c2ccc(S(=O)(=O)NCC3CCC(C(=O)Nc4cccc(F)c4)CC3)cc2CC1C (stereo not given) | inactive | – |
| COc1ccccc1Nc1nn2c(=O)c3ccc(C(=O)NC4CCCCC4)cc3nc2s1 | inactive | – |
| Cc1cccc(C(=O)n2nc(-c3ccco3)nc2NCc2ccccc2)c1 | inconclusive: 11.2 µM [activator, partial curve] | – |
| CCOc1ccc(NCc2cccn2-c2nnc(N3CCC(C(=O)NC(C)c4ccccc4)CC3)s2)cc1 (stereo not given) | – | inconclusive: -51% [activator] |
| CCc1ccc2oc(-c3cccc(NC(=O)c4ccc(-c5cccc([N+](=O)[O-])c5)o4)c3)nc2c1 | inconclusive: 10 µM [activator, partial curve, poor fit] | – |
| Cn1c(NCc2ccccc2F)nc2ccccc21 | active: 5.01 µM | – |
| Cc1ccc(-n2ncc3c(Nc4ccc5c(c4)OCCO5)ncnc32)cc1C | inconclusive: 39.8 µM [activator, single point] | – |

From PubChem BioAssay AID1508624 (National Center for Advancing Translational Sciences (NCATS), 2021)
